Test results: a collection of fitness landscapes (doi:10.1126/science.1257360)
This is one part of the list.

B1: PhoQ; a variant is named by its letters at X, in order, P23837 (parent)
chain: MKKLLRLFFPLSLRVRFLLATAAVVLVLSLAYGMVALIGYSVSFDKTTFRLLRGESNLFYTLAKWENNKLHVELPENIDKQSPTMTLIYDENGQLLWAQRDVPWLMKMIQPDWLKSNGFHEIEADVNDTSLLLSGDHSIQQQLQEVREDDDDAEMTHSVAVNVYPATSRMPKLTIVVVDTIPVELKSSYMVWSWFIYVLSANLLLVIPLLWVAAWWSLRPIEALAKEVRELEEHNRELLNPATTRELTSLVRNLNRLLKSERERYDKYRTTLTDLTHSLKTPLXXLQXXLRSLRSEKMSVSDAEPVMLEQISRISQQIGYYLHRASMRGGTLLSRELHPVAPLLDNLTSALNKVYQRKGVNISLDISPEISFVGEQNDFVEVMGNVLDNACKYCLEFVEISARQTDEHLYIVVEDDGPGIPLSKREVIFDRGQRVDTLRPGQGVGLAVAREITEQYEGKIVAGESMLGGARMEVIFGRQHSAPKDE

Variants of: B1
Assay: enrichment ratio after two sorts for PhoP signalling (ratio (wild type AVST 3.29)); higher = more functional
Conditions: with PhoP (E. coli)

| Variant | enrichment ratio |
| --- | --- |
| QSLY | ≤ 0.25 |
| LNAR | ≤ 0.25 |
| YAAL | ≤ 0.25 |
| DNPV | ≤ 0.25 |
| LNWL | ≤ 0.25 |
| WCSG | ≤ 0.25 |
| RERI | ≤ 0.25 |
| CITY | ≤ 0.25 |
| SFSN | ≤ 0.25 |
| ICTW | ≤ 0.25 |
| IVWQ | ≤ 0.25 |
| WELC | ≤ 0.25 |
| FWSD | ≤ 0.25 |
| AMLV | 5.5 |
| MKWM | ≤ 0.25 |
| SPKC | ≤ 0.25 |
| PGLG | ≤ 0.25 |
| NTFF | ≤ 0.25 |
| QRRW | ≤ 0.25 |
| DQCD | ≤ 0.25 |
| NHRV | ≤ 0.25 |
| ETWF | ≤ 0.25 |
| SKLC | 12.6 |
| RDYG | ≤ 0.25 |

| Variant | enrichment ratio |
| --- | --- |
| IKTG | 1.98 |
| GQPL | ≤ 0.25 |
| QYFI | ≤ 0.25 |
| EKSD | ≤ 0.25 |
| ARTW | ≤ 0.25 |
| KSDF | ≤ 0.25 |
| LDLC | ≤ 0.25 |
| ITIF | ≤ 0.25 |
| PFPQ | ≤ 0.25 |
| AFSC | ≤ 0.25 |
| NIRG | ≤ 0.25 |
| QCRM | ≤ 0.25 |
| ESEW | ≤ 0.25 |
| WRCQ | ≤ 0.25 |
| MMSM | 7.2 |
| VGIC | ≤ 0.25 |
| PGII | ≤ 0.25 |
| FDIG | ≤ 0.25 |
| ATHP | ≤ 0.25 |
| LVGY | ≤ 0.25 |
| QKIF | ≤ 0.25 |
| YLRD | ≤ 0.25 |
| PAQR | ≤ 0.25 |
| DFDI | ≤ 0.25 |

| Variant | enrichment ratio |
| --- | --- |
| WKKR | ≤ 0.25 |
| DKYR | ≤ 0.25 |
| YLQS | ≤ 0.25 |
| NWIL | ≤ 0.25 |
| QNFG | ≤ 0.25 |
| GMGH | ≤ 0.25 |
| EMIR | ≤ 0.25 |
| QKTM | ≤ 0.25 |
| RAQW | ≤ 0.25 |
| SQDV | ≤ 0.25 |
| HDNW | ≤ 0.25 |
| MKFH | ≤ 0.25 |
| KDPL | ≤ 0.25 |
| MDNG | ≤ 0.25 |
| MPNV | ≤ 0.25 |
| DGTA | ≤ 0.25 |
| MGMV | 11.1 |
| DTHD | ≤ 0.25 |
| MKPD | ≤ 0.25 |
| PFGD | ≤ 0.25 |
| RHMW | ≤ 0.25 |
| GMPV | ≤ 0.25 |
| DTQR | ≤ 0.25 |
| VTFA | ≤ 0.25 |

| Variant | enrichment ratio |
| --- | --- |
| HSMW | ≤ 0.25 |
| DIWC | ≤ 0.25 |
| WYLM | ≤ 0.25 |
| ANMT | 12.2 |
| KGRW | ≤ 0.25 |
| GMDS | ≤ 0.25 |
| CTFI | 9.39 |
| RNTQ | ≤ 0.25 |
| DAHG | ≤ 0.25 |
| WYKR | ≤ 0.25 |
| GQWW | ≤ 0.25 |
| KMDP | ≤ 0.25 |
| ARRC | ≤ 0.25 |
| YWAI | ≤ 0.25 |
| YWSM | ≤ 0.25 |
| DGYE | ≤ 0.25 |
| RNMT | 5.12 |
| LGLW | ≤ 0.25 |
| DQFA | ≤ 0.25 |
| IDYP | ≤ 0.25 |
| FCKS | ≤ 0.25 |
| RALR | ≤ 0.25 |
| PQCI | ≤ 0.25 |
| PSWQ | ≤ 0.25 |

| Variant | enrichment ratio |
| --- | --- |
| TNHQ | ≤ 0.25 |
| NICF | ≤ 0.25 |
| RKYF | ≤ 0.25 |
| SKDR | ≤ 0.25 |
| SAVA | ≤ 0.25 |
| GFHI | ≤ 0.25 |
| ATNW | ≤ 0.25 |
| TRNV | ≤ 0.25 |
| FLKN | ≤ 0.25 |
| MFLT | ≤ 0.25 |
| PVDK | ≤ 0.25 |
| LVVI | ≤ 0.25 |
| GFFM | ≤ 0.25 |
| REFH | ≤ 0.25 |
| GQNY | ≤ 0.25 |
| IVEP | ≤ 0.25 |
| KCNN | ≤ 0.25 |
| LNVE | ≤ 0.25 |
| SWVW | ≤ 0.25 |
| RSKE | ≤ 0.25 |
| NVHP | ≤ 0.25 |
| EEPI | ≤ 0.25 |
| VNQQ | ≤ 0.25 |
| EGFD | ≤ 0.25 |

| Variant | enrichment ratio |
| --- | --- |
| NWWS | ≤ 0.25 |
| HTSF | ≤ 0.25 |
| DLSL | ≤ 0.25 |
| RPNM | ≤ 0.25 |
| THDQ | ≤ 0.25 |
| HAGE | ≤ 0.25 |
| KKHK | ≤ 0.25 |
| SVYG | 0.76 |
| LPVE | ≤ 0.25 |
| SSAI | 9.88 |
| NHTE | ≤ 0.25 |
| WPRI | ≤ 0.25 |
| NGCM | ≤ 0.25 |
| SNDD | ≤ 0.25 |
| SYER | ≤ 0.25 |
| NYRH | ≤ 0.25 |
| DQTT | ≤ 0.25 |
| SLPN | ≤ 0.25 |
| HYFN | ≤ 0.25 |
| TFVY | ≤ 0.25 |
| MACA | ≤ 0.25 |
| KRET | ≤ 0.25 |
| HKWY | ≤ 0.25 |
| NRYA | ≤ 0.25 |

| Variant | enrichment ratio |
| --- | --- |
| VPWI | ≤ 0.25 |
| WKPS | ≤ 0.25 |
| KNWG | ≤ 0.25 |
| EQLW | ≤ 0.25 |
| DWFY | ≤ 0.25 |
| MRAV | ≤ 0.25 |
| SETA | 10.5 |
| KAST | ≤ 0.25 |
| ETEF | ≤ 0.25 |
| DSKH | ≤ 0.25 |
| PQCP | ≤ 0.25 |
| EQGK | ≤ 0.25 |
| IMDA | ≤ 0.25 |
| QKVK | ≤ 0.25 |
| RMCR | ≤ 0.25 |
| SRKQ | ≤ 0.25 |
| RSIG | ≤ 0.25 |
| TEDW | ≤ 0.25 |
| SNRW | ≤ 0.25 |
| NDAH | ≤ 0.25 |
| QWTP | ≤ 0.25 |
| LFME | ≤ 0.25 |
| RQPC | ≤ 0.25 |
| LFKH | ≤ 0.25 |

| Variant | enrichment ratio |
| --- | --- |
| CETV | ≤ 0.25 |
| KQIR | ≤ 0.25 |
| MKIQ | ≤ 0.25 |
| LKDF | ≤ 0.25 |
| MIHV | ≤ 0.25 |
| PVWK | ≤ 0.25 |
| LFYC | ≤ 0.25 |
| NGKR | ≤ 0.25 |
| NEDN | ≤ 0.25 |
| NYFF | ≤ 0.25 |
| SCNV | ≤ 0.25 |
| LSMR | ≤ 0.25 |
| VYWK | ≤ 0.25 |
| HYWS | ≤ 0.25 |
| MQIN | ≤ 0.25 |
| YHSD | ≤ 0.25 |
| KYKK | ≤ 0.25 |
| MYRL | ≤ 0.25 |
| DRKW | ≤ 0.25 |
| TIIS | ≤ 0.25 |
| FTCE | ≤ 0.25 |
| QQQL | ≤ 0.25 |
| HMNH | ≤ 0.25 |
| KWFI | ≤ 0.25 |

| Variant | enrichment ratio |
| --- | --- |
| PHRS | ≤ 0.25 |
| LQIE | ≤ 0.25 |
| KLPC | ≤ 0.25 |
| VEKF | ≤ 0.25 |
| LPTP | ≤ 0.25 |
| HPVK | ≤ 0.25 |
| QIIP | ≤ 0.25 |
| MSLI | 10.4 |
| HFKA | ≤ 0.25 |
| YIRA | ≤ 0.25 |
| IKWN | ≤ 0.25 |
| VDCN | ≤ 0.25 |
| YCWD | ≤ 0.25 |
| TVRV | ≤ 0.25 |
| QDSN | ≤ 0.25 |
| NDFK | ≤ 0.25 |
| IYIQ | ≤ 0.25 |
| INDG | ≤ 0.25 |
| QSKY | ≤ 0.25 |
| MFID | ≤ 0.25 |
| HMDT | ≤ 0.25 |
| LTRS | ≤ 0.25 |
| NSQC | ≤ 0.25 |
| CLPP | ≤ 0.25 |

| Variant | enrichment ratio |
| --- | --- |
| GEMI | 84 |
| RNEV | ≤ 0.25 |
| FGMD | ≤ 0.25 |
| LGPS | ≤ 0.25 |
| QESK | ≤ 0.25 |
| FVEF | ≤ 0.25 |
| LMGY | ≤ 0.25 |
| GYGS | ≤ 0.25 |
| DHYS | ≤ 0.25 |
| WHEW | ≤ 0.25 |
| GGPG | ≤ 0.25 |
| ACKS | ≤ 0.25 |
| PWAI | ≤ 0.25 |
| YLKV | ≤ 0.25 |
| YFLA | ≤ 0.25 |
| VNVM | 5.74 |
| QMSG | 6.53 |
| AFLR | 2.59 |
| MEWE | ≤ 0.25 |
| YTQR | ≤ 0.25 |
| LYRF | ≤ 0.25 |
| ILEH | ≤ 0.25 |
| DQHF | ≤ 0.25 |
| LRFR | ≤ 0.25 |

| Variant | enrichment ratio |
| --- | --- |
| PCDC | ≤ 0.25 |
| STAH | 8.44 |
| WQEP | ≤ 0.25 |
| DMRD | ≤ 0.25 |
| RDVV | ≤ 0.25 |
| HRVY | ≤ 0.25 |
| KACC | ≤ 0.25 |
| EMNR | ≤ 0.25 |
| SQRD | ≤ 0.25 |
| MSGC | 7 |
| VGWR | ≤ 0.25 |
| YFWC | ≤ 0.25 |
| PQFE | ≤ 0.25 |
| YMHY | ≤ 0.25 |
| MGKG | ≤ 0.25 |
| DTSK | ≤ 0.25 |
| SWVA | 1.07 |
| NMWD | ≤ 0.25 |
| VYRH | ≤ 0.25 |
| NWWC | ≤ 0.25 |
| MIRL | ≤ 0.25 |
| TPYQ | 0.956 |
| TAAY | 15.7 |
| HIQR | ≤ 0.25 |

| Variant | enrichment ratio |
| --- | --- |
| SADW | ≤ 0.25 |
| IHGA | ≤ 0.25 |
| VMRC | ≤ 0.25 |
| NGCY | ≤ 0.25 |
| QMMF | ≤ 0.25 |
| ADSM | ≤ 0.25 |
| VSAK | ≤ 0.25 |
| SMTQ | 8.61 |
| RTNM | ≤ 0.25 |
| QCNV | ≤ 0.25 |
| QNNL | ≤ 0.25 |
| EIHR | ≤ 0.25 |
| CSPL | ≤ 0.25 |
| KQSF | ≤ 0.25 |
| DHWY | ≤ 0.25 |
| VYCK | ≤ 0.25 |
| DDAG | ≤ 0.25 |
| ELWL | ≤ 0.25 |
| SDSW | ≤ 0.25 |
| GNMH | 1.54 |
| WYTQ | ≤ 0.25 |
| LMIP | ≤ 0.25 |
| KPAA | ≤ 0.25 |
| PGPR | ≤ 0.25 |

| Variant | enrichment ratio |
| --- | --- |
| YTNC | ≤ 0.25 |
| TSFT | 1.52 |
| SQMN | 25.3 |
| FWNT | ≤ 0.25 |
| NEYF | ≤ 0.25 |
| VWQE | ≤ 0.25 |
| FGTV | ≤ 0.25 |
| SDGM | ≤ 0.25 |
| IIEN | ≤ 0.25 |
| FSAM | 4.43 |
| SFVW | ≤ 0.25 |
| KNHL | ≤ 0.25 |
| TTLH | 19.7 |
| GSKQ | ≤ 0.25 |
| WKGR | ≤ 0.25 |
| GKKW | ≤ 0.25 |
| DTVL | ≤ 0.25 |
| MEDY | ≤ 0.25 |
